# Laboratory results from PubChem BioAssay AID1508642 (National Center for Advancing Translational Sciences (NCATS), 2021).
# Hit rate of the full screen: of about 43,000 compounds, about 200 (0.47%) were called active. Inconclusive results (about 12%) are left out. Calls come from the whole dose curve; as a rule, active = well fitted cell-killing curve with a large enough effect; inconclusive = small, poorly fitted or top-dose-only effect, or effect the other way; inactive = flat fitted curve, though single readings scatter. This is one part of the list.
# Experiment: Cell viability qHTS assay in S16 Pmp22-F2sN cells; note: nearly all actives have a fitted effect of over 65% in size
# Conditions: S16 Pmp22-F2sN Schwann cells (luciferase reporters placed in the Pmp22 gene) viability, CellTiter-Glo, 24 h; series mostly up to 57.5 µM; activity change, negative = cytotoxicity: at the top concentration
# Procedure, shortened: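 Seed 500-1,000 S16 Pmp22-F2sN cells per well in phenol-red-free DMEM with 10% heat-inactivated FBS; pin-add 23 nL compound; incubate 24 h at 37C; add CellTiter-Glo, wait 15 min protected from light; read luminescence.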
# % is set by controls: 0 for no effect and ±100 for the full control effect.
row,SMILES,"activity change, negative = cytotoxicity"
1,O=C(NCc1ccc(Cl)cc1)c1ccc2c(c1)NC(=O)C(CS(=O)(=O)Cc1ccccc1Cl)N2 (centres undefined),inactive: -4.23%
2,CCc1cccc(NC(=O)Cn2cc(C(=O)c3ccncc3)c(=O)c3cc(C)c(C)cc32)c1,inactive: 1.72%
3,O=C(O)CCn1cnc2onc(-c3ccccc3Cl)c2c1=O,inactive: 2.66%
4,Cc1cccn2c(=O)cc(COc3ccc(NC(=O)c4cccc(F)c4)cc3)nc12,inactive: -0.874%
5,CCC1CCCCN1C(=O)Cn1c(=O)n(CCCCCC(=O)NCc2ccc(F)cc2)c(=O)c2sccc21 (centres undefined),inactive: 17.9%
6,O=C(Nc1c(C(=O)Nc2cccc(C(F)(F)F)c2)oc2ccccc12)c1cc(=O)c2ccccc2o1,inactive: 5.69%
7,CCSc1nc(-c2ccc(Cl)cc2)nc2c1Cc1c(CO)cnc(C)c1O2,inactive: -14.9%
8,CC1=C(c2ccc(Cl)cc2)S(=O)(=O)N=C1N1CCN(c2cccc(C(F)(F)F)c2)CC1,inactive: -1.86%
9,COc1ccc(-c2cc(C(F)(F)F)n3nc(C(=O)Nc4cccc(C(F)(F)F)c4)c(Br)c3n2)cc1,inactive: 4.03%
10,CCOC(=O)c1ccc(NC(=O)CCn2cnnn2)cc1,inactive: 1.01%
11,COC(=O)c1cnc(N2CCN(c3ccccc3OC)CC2)c2ccccc12,inactive: -15.4%
12,CCOC(=O)c1sc2ccccc2c1S(=O)(=O)NCc1ccc(F)cc1,inactive: 2.25%
13,CC(C)C(=O)Nc1cccc(NC2=NS(=O)(=O)c3ccccc32)c1,inactive: 4.42%
14,CCOC(=O)c1cccc(NC(c2nnc(-c3ccccc3)o2)c2ccccc2F)c1 (centres undefined),inactive: -17.2%
15,Cc1ccc(C)c(N2CCN(c3nc4ccccc4c4nc(-c5cccnc5)nn34)CC2)c1,inactive: 16.9%
16,Cc1ccc2c(c1)c(=O)c(C(=O)c1ccncc1)cn2CC(=O)Nc1ccccc1Cl,inactive: 2.91%
17,CCc1ccc(C2=CC(c3cccc(Br)c3)n3nnnc3N2)cc1 (centres undefined),inactive: -3.93%
18,COc1ccc(CCNC(=O)CCCCCn2c(=O)[nH]c3cc(OC)c(OC)cc3c2=O)cc1OC,inactive: 2.28%
19,Cc1ccc(C)c(Cn2c(C)c(CNCc3ccc(F)cc3)c(C(=O)O)c2C)c1,inactive: 6.81%
20,CC(=O)Nc1nnc(SCc2cc(=O)c3cccc(C)c3[nH]2)s1,inactive: -7.34%
21,CC1=C(C(=O)Nc2ccc(C)cc2C)C(c2cccn2C)n2ncnc2N1 (centres undefined),inactive: 6.17%
22,COc1ccc(NC(=O)CSc2nc(O)c(C/C=C/c3ccccc3)c(=O)[nH]2)cc1,inactive: -5.09%
23,CCc1ccc(NC(=O)Cn2c(=O)oc3cc(S(=O)(=O)NCc4ccccc4)ccc32)cc1,inactive: 14.3%
24,Cc1ccc(CNC(=O)C2CCCN(c3nnc(-n4c(C)ccc4C)s3)C2)cc1 (centres undefined),inactive: 1.54%

row,SMILES,"activity change, negative = cytotoxicity"
1,CC(C)CCNc1nc2c(S(=O)(=O)c3ccc(Br)cc3)nnn2c2ccsc12,inactive: 2.82%
2,CCc1cc2c(cc3c(=O)n(CC(=O)N4CCN(c5cc(Cl)ccc5C)CC4)nc(CC)n32)s1,inactive: 15.3%
3,O=C(NCc1cccnc1)C(=O)NCC(c1cccnc1)N1CCN(c2ccccc2)CC1 (centres undefined),inactive: -8.66%
4,CCCCCCc1cc2cc(-c3nnc(-c4ccc(C)cc4)o3)c(=O)oc2cc1O,inactive: -0.356%
5,CCOc1ccc(NC(=O)Cn2c(=O)n(CC3CCCO3)c(=O)c3ccccc32)cc1 (centres undefined),inactive: -8.36%
6,CCc1ccc(NC(=O)CSc2nc(C)cc(COC)c2C#N)cc1,inactive: 7.15%
7,CCc1ccc(-n2nc(C)c3c(C)cc(=O)n(CC(=O)NCc4ccc(C)cc4)c32)cc1,inactive: 0.3%
8,CCOc1ccc2nc(N3CCCC(C(=O)NCc4ccccc4Cl)C3)sc2c1 (centres undefined),inactive: 2.43%
9,O=C(NCc1ccccc1)C1CCN(C(=O)c2cnn(-c3ccccc3)c2-n2cccc2)CC1,inactive: -3.39%
10,C=Cc1ccc(Cn2c(=O)n(-c3ccc(C)cc3)c(=O)c3c2c2cc(OC)ccc2n3C)cc1,inactive: -3.32%
11,CN(C)CCNC(=O)CN1C(=O)CCn2nc(-c3cn(C)c4ccccc34)cc21,inactive: -2.99%
12,Cc1cc(C)cc(-n2nnc(-c3nsc(NC(=O)c4ccccc4Cl)n3)c2C)c1,inactive: 11%
13,CCc1ccc(NC(=O)Cn2ncc3c(C)n(Cc4cccc(Cl)c4)c(C)c3c2=O)cc1,inactive: 8.85%
14,COc1cccc(CNC(=O)c2ccc(-c3nc(CS(=O)(=O)c4ccccc4)c(C)o3)cc2)c1,inactive: -29.7%
15,CCC1CCCCN1C(=O)CSc1n[nH]c(-c2ccccc2Cl)n1 (centres undefined),inactive: -0.231%
16,CCN(c1ccc(OC)cc1)S(=O)(=O)c1nnc(NC(=O)c2ccccc2C)s1,inactive: -8.14%
17,COC(=O)c1cc2sccc2n1Cc1nc(-c2cccc(Br)c2)oc1C,inactive: 1.71%
18,CC(=O)Nc1ccc(S(=O)(=O)NCc2ccc(C(=O)NCc3ccc(Cl)cc3)cc2)cc1,inactive: 18.6%
19,O=C(Nc1ccc(C(F)(F)F)cc1)C1CCCN(S(=O)(=O)c2cccc3cccnc23)C1 (centres undefined),inactive: -5.67%
20,O=C(Cc1ccc(F)cc1)NCc1nc2cccnc2n1Cc1ccc(F)cc1,inactive: -14.2%
21,FC(F)(F)c1cccc(N2CCN(Cc3nnc(-c4ccc5c(c4)OCO5)o3)CC2)c1,inactive: 5.78%
22,Cc1ccccc1OCC(=O)Nc1ccc(OCc2cc(=O)n3ccsc3n2)cc1,inactive: -0.557%
23,CCOC(=O)c1cccc(NC(=O)N2CCC(CN3CCc4ccccc4C3)CC2)c1,inactive: 11.1%
24,NS(=O)(=O)c1ccc(CCNC(=O)c2ccc3nc(Cc4ccccc4)oc3c2)cc1,inactive: 17.9%

row,SMILES,"activity change, negative = cytotoxicity"
1,CCCc1cc(=O)oc2cc(C)c3c(-c4cccc(OC)c4)coc3c12,inactive: 5.13%
2,CC(C)(C)C1CCc2c(sc(NC(=O)CCC(=O)O)c2C(=O)Nc2ccccc2C(F)(F)F)C1 (centres undefined),inactive: 7.75%
3,CC1CCCN(Cc2nc3c(c(=O)n(C)c(=O)n3C)n2Cc2ccc(Cl)cc2Cl)C1 (centres undefined),inactive: -2.39%
4,COc1cccc(-c2nc(SCC(=O)NCC3CCCO3)c(-c3ccc(F)cc3)[nH]2)c1 (centres undefined),inactive: 5.98%
5,CCOC(=O)c1cccc(NC(=O)N2CC(CC)Sc3ccccc32)c1 (centres undefined),inactive: 13.4%
6,COc1ccc(CCNC(=O)C2CCN(c3ncnc4c3nc3n4CCCCC3)CC2)c(OC)c1,inactive: -5.03%
7,CCOc1ccc(S(=O)(=O)c2c[nH]c3ccccc3c2=O)cc1,inactive: 4.09%
8,Cc1ccccc1C(=O)Nc1ccc2nc(Nc3cccc(C(F)(F)F)c3)cc(C)c2c1,inactive: -1.66%
9,CCOC(=O)c1ccc(NC(=O)CSc2nccn2-c2ccc(OCC)cc2)cc1,inactive: -14%
10,FC(F)(F)c1cccc(-c2nnn3c2nc(NC2CCCCC2)c2ccccc23)c1,inactive: -11.5%
11,Cc1cccc(N2CCN(C(=O)Cn3cnc4sc(C)c(S(=O)(=O)N5CCN(c6ncccn6)CC5)c4c3=O)CC2C)c1 (centres undefined),inactive: 18.3%
12,CCC(C)NC(=O)C1CCN(C(=O)c2ccc(-n3ccc4ccccc43)s2)CC1 (centres undefined),inactive: -8.02%
13,COc1ccccc1CCNC(=O)Cc1c(C)c2c(cc(C)c3c(C)c(C)oc32)oc1=O,inactive: -3.45%
14,Cc1cccc(-c2nc(CSCC(=O)N3CCN(c4ccccc4)CC3)c(C)o2)c1,inactive: -5.16%
15,COc1ccccc1Cc1nc2ccccc2nc1SCC(=O)N1CCc2ccccc21,inactive: 9.8%
16,COc1ccccc1N1CCN(c2ccc(-c3nc(-c4ccccc4C)no3)cc2[N+](=O)[O-])CC1,inactive: -0.0787%
17,CCOc1ccc(CCNC(=O)c2cc(=O)[nH]c3ccc(S(=O)(=O)N4CCCCC4)cc23)cc1OCC,inactive: 7.99%
18,CCOc1ccccc1CNC(=O)C1CCN(S(=O)(=O)c2c(C)noc2/C=C/c2ccc(C)cc2)CC1,inactive: -16%
19,COc1cccc(NC(=O)C(=O)NCCc2csc(-c3ccc(C(F)(F)F)cc3)n2)c1,inactive: -1.44%
20,COc1cc([N+](=O)[O-])ccc1NC(=O)N1CCN(c2cc(-c3noc(C)n3)ccc2C)CC1,inactive: -2.51%
21,COc1ccc(NC(=O)C(C)n2nnc3sc(-c4ccccc4)cc3c2=O)cc1Cl (centres undefined),inactive: 1.51%
22,CC(C)CC(=O)NCC1(N(C)C)CCCCC1,inactive: -8.9%
23,Cc1cccc(N(C)c2nc3ccc(C)cc3n3cnnc23)c1,inactive: 16.6%
24,CCCCOc1ccccc1C(=O)Nc1nonc1-c1ccccc1,inactive: -27%

row,SMILES,"activity change, negative = cytotoxicity"
1,COc1cc(OC)c(NC(=O)N2CCc3c(sc4c3CCCC4)C2c2ccccc2)cc1Cl (centres undefined),inactive: 2.65%
2,O=C(Nc1nnc(S(=O)(=O)N2CCCCCC2)s1)c1ccccc1Cl,inactive: -1.73%
3,CCOc1ccc(NC(=O)c2cc3c(s2)-c2ccccc2OC3)cc1,inactive: -0.0447%
4,Cc1cccc(NC(=O)C(Cc2ccccc2)n2cccc2)c1C (centres undefined),inactive: -0.664%
5,Cc1nc(-c2ccccc2)sc1CCNC(=O)C(=O)Nc1ccc2c(c1)OCCO2,inactive: 7.02%
6,Cc1ccc(CNC(=O)CCCN2C(=O)c3cccnc3Oc3ccc(Cl)cc32)cc1,inactive: -4.23%
7,CNS(=O)(=O)c1cn(CC(=O)Nc2ccc(C)c(N(C)C)c2)cc1S(=O)(=O)NC,inactive: -0.981%
8,CCN(C(=O)c1cc(S(=O)(=O)N2CCc3ccccc32)cn1C)c1cccc(C)c1,inactive: 5.19%
9,CC1=C(C(N)=O)C(c2ccc(F)cc2)n2nc(-c3ccc(N(C)C)cc3)nc2N1 (centres undefined),inactive: -0.734%
10,Cc1ccc(Cl)cc1N1CCN(C(=O)c2cccn2-c2nnc(N3CCCC3)s2)CC1,inactive: -17.2%
11,Cc1ccc2c(=O)c(C(=O)c3ccc(F)cc3)cn(CC(=O)NCc3ccccc3Cl)c2n1,inactive: -3.62%
12,Cc1ccc(-c2nn(CC(=O)NC3CCCCC3)c3c2cnc2ccccc23)cc1,inactive: 7.57%
13,CC(C)(C)OC(=O)N1CCC(c2c(C(=O)NCc3ccc4c(c3)OCO4)cnn2-c2ccccc2Cl)CC1,inactive: -6.46%
14,COc1ccc(NC(=O)c2ccc3c(c2)nnn3C2CCCC2)cc1Cl,inactive: 6.11%
15,Cc1ccc(Cn2c(C(=O)O)c(CNCc3cccs3)c3ccc(C)cc32)cc1,inactive: -1.64%
16,Cc1ccc(Cl)cc1NC(=O)c1ccc2snnc2c1,inactive: 26.2%
17,COc1cc(NC(=O)NCCn2nnc3cc(S(=O)(=O)N(C)C)ccc32)cc(OC)c1,inactive: 8.39%
18,COc1ccc(C(=O)Nc2nnc(S(=O)(=O)N(CC(C)C)c3ccccc3)s2)cc1,inactive: -0.506%
19,COc1ccc(OC)c(C2C(C(=O)Nc3ccccc3OC)=C(C)Nc3c(C(=O)Nc4ccc(F)cc4)cnn32)c1 (centres undefined),inactive: 1.7%
20,COc1ccc(C(=O)Nc2c(C(=O)c3ccccc3)oc3ccccc23)cc1,inactive: 9.93%
21,CCOC(=O)c1cccc(NC(=O)C2CCCN(c3nnc(C)c4c(C)n(-c5ccccc5)nc34)C2)c1 (centres undefined),inactive: 13%
22,O=C(Nc1cc(Cl)cc(Cl)c1)c1cc(S(=O)(=O)N2CCc3ccccc3C2)ccc1F,inactive: -14.5%
